# Reference: patent US20260258106A1 (BEIJING NEOX BIOTECH, published 2026)
# Target: IL-21R expressed on the surface of HuT78 cells (UniProt Q9HBE5 20-538, limits assumed)
# Experiment: cell-based or functional assay
# UniProt Q9HBE5, sequence (Q9HBE5 20-538 limits assumed): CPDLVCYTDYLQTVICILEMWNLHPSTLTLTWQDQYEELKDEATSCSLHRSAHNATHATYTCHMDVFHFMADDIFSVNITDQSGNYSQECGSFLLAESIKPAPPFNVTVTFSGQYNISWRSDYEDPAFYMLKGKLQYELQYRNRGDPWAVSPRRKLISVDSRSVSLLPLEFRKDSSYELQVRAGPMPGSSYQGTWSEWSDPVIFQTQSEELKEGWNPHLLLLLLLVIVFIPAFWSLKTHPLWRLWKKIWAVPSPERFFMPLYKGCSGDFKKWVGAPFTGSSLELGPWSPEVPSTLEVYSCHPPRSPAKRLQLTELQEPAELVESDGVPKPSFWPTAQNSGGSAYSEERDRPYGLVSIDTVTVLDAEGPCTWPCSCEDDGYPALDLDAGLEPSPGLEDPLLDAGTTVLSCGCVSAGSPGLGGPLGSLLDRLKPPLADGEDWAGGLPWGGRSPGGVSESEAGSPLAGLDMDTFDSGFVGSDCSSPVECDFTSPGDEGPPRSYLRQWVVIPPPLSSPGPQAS
row,"pSTAT3 activation(EC50, nM) [nM]",Binder
1,792,m109-Fc (Fc fusion) QGQDRHMIRMRQLIKWVDQLKNYVNDLVPEFLPAPEDVETNCEWSAFSCFQKAQLKSANTGNNERIINVLIKKLKFKPESTNAGRRQKHRLTCPSCDSYEKKPPKEFLERFKSLLQKMIHQHLSSRTHGSEDS[human IgG1 Fc with changes not shown]
2,840,m110-Fc (Fc fusion) QGQDRHMIRMRQLIRWVDQLKNYVNDLVPEFLPAPEDVETNCEWSAFSCFQKAQLKSANTGNNERIINVLIKKLKFKPESTNAGRRQKHRLTCPSCDSYEKKPPKEFLERFKSLLQKMIHQHLSSRTHGSEDS[human IgG1 Fc with changes not shown]
3,220,m111-Fc (Fc fusion) QGQDRHMIRMRQLIRWVDQLKNYVNDLVPEFLPAPEDVETNCEWSAFSCFQKAQLKSANTGNNERIINVLIKYLKRKPEGGGSEGGGSLTCPSCDSYEKKPPKEFLERFKSLLQKMIHQHLSSRTHGSEDS[human IgG1 Fc with changes not shown]
